Article PMC4351876 (Cancer prevention research (Philadelphia, Pa.), 2013)

Tests used:
[1] = human, in vivo
[2] = previously reported; cited from earlier work

C#Cc1cccc(Nc2ncnc3cc(OCCOC)c(OCCOC)cc23)c1 [erlotinib]
dose limiting toxicity (DLT) [1]: None | maximum allowable dose (MAD) of erlotinib ([1]; 6 months): 75 mg | Tmax [2]: 2 to 3 h
